Reference: publication PMC5762908 (Scientific Reports, 2018)
Read-outs that look alike come from different tables or passages of the source.

Test system: SCC-9 (human oral squamous cell carcinoma)

Substance: [Ru(5-FU)(PPh3)2(bipy)]PF6 [RU/5-FU]
- more potent than 5-FU (fold) (SCC9, IC50 compared with 5-FU): 55 fold
- Selectivity index (SI) (SI = IC50[MRC-5]/IC50[SCC-9]): 4.1
- Selectivity index (SI) (SI = IC50[PBMC]/IC50[SCC-9]): 2.5
- IC50 (read-out: IC50 in µM, SCC9, alamar blue assay, 72 h incubation, 2D culture): 2.3 µM
